Experimental data published in patent US7422849 (LUDWIG INSTITUTE FOR CANCER RESEARCH, dated 2008).

Molecular target: bovine p85α (bovine, UniProt P23727 1-724)
Assay: cell-based or functional assay

Sequence of UniProt P23727 (P23727 whole entry): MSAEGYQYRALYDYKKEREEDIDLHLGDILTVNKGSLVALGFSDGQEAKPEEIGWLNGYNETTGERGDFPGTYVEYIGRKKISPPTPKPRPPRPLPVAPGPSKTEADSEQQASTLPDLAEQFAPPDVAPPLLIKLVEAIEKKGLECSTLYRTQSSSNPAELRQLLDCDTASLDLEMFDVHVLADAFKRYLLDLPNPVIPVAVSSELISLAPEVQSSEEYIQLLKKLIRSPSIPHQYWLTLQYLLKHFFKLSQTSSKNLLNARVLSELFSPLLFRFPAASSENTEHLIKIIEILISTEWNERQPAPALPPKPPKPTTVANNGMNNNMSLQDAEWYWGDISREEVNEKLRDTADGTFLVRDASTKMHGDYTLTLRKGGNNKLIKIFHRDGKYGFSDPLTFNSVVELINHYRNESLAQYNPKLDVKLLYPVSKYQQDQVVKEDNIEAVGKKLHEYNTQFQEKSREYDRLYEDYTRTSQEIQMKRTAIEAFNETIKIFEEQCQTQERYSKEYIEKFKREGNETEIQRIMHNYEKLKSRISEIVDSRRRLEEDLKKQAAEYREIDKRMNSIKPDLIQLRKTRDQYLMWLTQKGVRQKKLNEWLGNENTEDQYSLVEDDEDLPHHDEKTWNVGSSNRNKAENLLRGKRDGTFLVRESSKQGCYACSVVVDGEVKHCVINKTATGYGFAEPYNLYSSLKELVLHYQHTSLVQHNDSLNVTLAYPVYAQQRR

- PI3-kinase activity in anti-p85α immunoprecipitates of transfected COS-1 cells: 10 fold
B1: bovine p110 (enzyme)
chain: not shown
